# Hit rate of the full screen: of about 48,000 compounds, about 120 (0.25%) were called active. Not shown: some 4% with an inconclusive outcome. The call rests on the fitted dose curve; in most records, active means well fitted activation curve with a large enough effect; inconclusive means small, poorly fitted or top-dose-only effect, or another doubt; inactive means no such curve, though single readings can be large or run the other way. This is one part of the list.
# Assay: Primary qHTS for Identification of Small Molecule Activators of Huntingtin-Antisense Promoter Activity; further: nearly all actives have a fitted effect of over 55% in size
# Settings: HEK293 HTT-AS promoter firefly luciferase reporter, 24 h; series mostly up to 57.5 µM; activity change, positive = activation: at the top concentration
# Summary of the method: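 HEK293 luciferase promoter-reporter cells (2,500/well) plated 24 h, then compounds added at up to 57.5 uM final for 24 h at 37 °C. Firefly luminescence by Dual-Glo, normalized to vehicle (0%) and zero RLU (-100%).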
row,Compound,"activity change, positive = activation"
1,Cc1cc(C)c(Cn2c(C3CC(=O)N(c4ccc(F)cc4)C3)nc3ccccc32)c(C)c1 (configuration not stated),inactive: -24.6%
2,CC(C)CCN(C(=O)Nc1ccccc1)C(C)c1cccs1 (configuration not stated),inactive: -25.9%
3,CC(C)OC(=O)c1c(-c2ccccc2)c(-c2ccccc2)nn(C)c1=O,inactive: -26.1%
4,CCOC(=O)c1ccc(NC(=O)CCn2ccc(C)n2)cc1,inactive: -2.45%
5,COc1cccc(NC(=O)CSc2nc(=O)n(Cc3ccncc3)c3c2CCC3)c1,inactive: -18.5%
6,CNS(=O)(=O)c1cn(CC(=O)Nc2ccc(C(C)=O)cc2)cc1S(=O)(=O)NC,inactive: -4.52%
7,Cc1ccc(CN2CCN(C3CCN(C(=O)Nc4ccc(C)cc4Cl)CC3)C(=O)C2=O)cc1,inactive: -13%
8,CC(=O)N1CCc2cc(CNC(=O)c3ccccc3Br)ccc21,inactive: 22.6%
9,CCCCNS(=O)(=O)c1ccc(C)c(-c2nnc3c4ccccc4c(C)nn23)c1,inactive: -21.1%
10,O=C(Nc1ccc(Br)cc1)c1ccc(F)c(S(=O)(=O)N2CCc3ccccc32)c1,inactive: -44.6%
11,O=C(NCc1cccs1)C1CCN(C(=O)N2CCOc3ccc(Cl)cc32)CC1,inactive: -6.76%
12,CC(=O)N1CCc2cc(S(=O)(=O)NC(Cc3ccccc3)C(=O)NCc3ccc(C)cc3)ccc21 (configuration not stated),inactive: -17.3%
13,COc1ccc(CCNC(=O)C2CCN(S(=O)(=O)c3c(C)noc3/C=C/c3ccc(C)cc3)CC2)cc1OC,inactive: -7.97%
14,Cc1ccc(S(=O)(=O)C(CNC(=O)C(=O)NCc2ccccc2C)c2cccs2)cc1 (configuration not stated),inactive: -42.5%
15,Nc1ccn(C[C@@H](CO)OCP(=O)(O)O)c(=O)n1,"inactive: -2.8% [at 25.1 µM, percent change from vehicle, -100% = no light]"
16,Cc1ccc(Cn2ccnc2SCC(=O)Nc2nc3ccccc3s2)cc1,inactive: -0.733%
17,NS(=O)(=O)c1ccc(NC(=O)C(=O)Nc2ccc3nc4n(c(=O)c3c2)CCCCC4)cc1,inactive: -9.3%
18,Cc1cc(NC(=O)C2CCN(S(=O)(=O)c3cccc4nsnc34)CC2)ccc1Br,inactive: -29.8%
19,Cc1cccc(C(=O)N2c3nc(-c4ccco4)nn3C3(CCCCC3)[C@@H]3CCCC[C@@H]32)c1,inactive: -46.7%
20,C#CCOc1ccc(C2CC(=O)Nc3c2c(C)nn3-c2nc(C)cc(C)n2)cc1 (configuration not stated),inactive: -15.8%
21,O=c1ccc(-c2ccccc2)nn1Cc1ccc(F)cc1Cl,inactive: -22.7%
22,O=C1c2c(O)cc(O)cc2OC(c2ccc(O)c(O)c2)C1O (configuration not stated),inactive: -0.532%
23,CCOC(=O)N1CCC2(CC1)OC(=O)C(C)=C2C(=O)NCc1cccc(F)c1,inactive: -10.6%
24,Cc1cccc(NC(=O)CN2C(=O)c3cccc4cccc2c34)c1C,inactive: -51%

row,Compound,"activity change, positive = activation"
1,CCCN1CCN(c2ncnc3sc(C(=O)Nc4c(C)cc(C)cc4C)c(C)c23)CC1,inactive: 10.4%
2,CCc1ccc(C(=O)c2cn(CC(=O)Nc3ccc(OC)cc3)c3cc4c(cc3c2=O)OCO4)cc1,inactive: -23.1%
3,CCC1CN(S(=O)(=O)c2cc(-c3onc(C)c3C)ccc2C)c2cc(Cl)ccc2O1 (configuration not stated),inactive: -33.5%
4,NC(=O)C1(N2CCCCC2)CCN(C(=O)Nc2ccc(F)cc2F)CC1,inactive: -1.91%
5,Cc1ccccc1Cn1c2ccccc2c2cnn(CC(=O)NC3CCC(C)CC3)c(=O)c21 (configuration not stated),inactive: -10%
6,COc1cc2c(=O)n(CCC(=O)NCC3CCCO3)c(=O)n(CC(=O)Nc3ccc(C)cc3C)c2cc1OC (configuration not stated),inactive: 8.14%
7,COc1cc(NC(=O)C(CC(C)C)NS(=O)(=O)c2ccc3c(c2)CCN3C(C)=O)cc(OC)c1 (configuration not stated),inactive: -30.9%
8,CCc1ccc(CNCc2c(C(=O)O)n(Cc3ccc(C)cc3)c3cc(C)ccc23)cc1,inactive: -48.4%
9,Cc1ccc(NC(=O)CC(C)S(=O)(=O)c2ccc3c(c2)NC(=O)CO3)c(Cl)c1 (configuration not stated),inactive: -8.79%
10,CC(C)c1ccc2oc(-c3ccc(NC(=O)c4cccc(Br)c4)cc3)nc2c1,inactive: -2.19%
11,CCOc1ccc2nc(N3CCCC(C(=O)Nc4cc(Cl)c(OC)cc4OC)C3)sc2c1 (configuration not stated),inactive: 5.02%
12,CN(C)CCCOc1nn(Cc2ccccc2)c2ccccc12,inactive: -28.8%
13,CCCCCCSc1nnc2c(n1)OC(C)Nc1ccc(Br)cc1-2 (configuration not stated),inactive: -23.7%
14,CCOC(=O)c1ccccc1NC(=O)COc1ccccc1-c1nnc(-c2ccccc2)o1,inactive: -16%
15,CSc1nn(Cc2cccc(C)c2)c(N)c1S(=O)(=O)c1ccccc1,inactive: -28.8%
16,COc1ccc(CNC(=O)c2ccc(NC(=O)N3CCSc4ccccc43)cc2)cc1,inactive: -5.94%
17,COc1ccc(-n2c(=O)c3c4c(sc3n(Cc3ccccc3C)c2=O)CCCC4)c(OC)c1,inactive: -13%
18,CCc1cccc(NC(=O)C(Cc2ccccc2)NS(=O)(=O)c2cccs2)c1 (configuration not stated),inactive: -31.3%
19,CC(=O)c1ccc(Nc2cc(C)nc3nc(Cc4ccccc4)nn23)cc1,inactive: -13.8%
20,COc1ccc(N(CC(=O)NCCc2ccccc2)S(=O)(=O)c2c(C)nn(C)c2C)cc1,inactive: -19.5%
21,NS(=O)(=O)c1ccc(NC(=O)CCC(=O)O)cc1,inactive: -2.57%
22,CCCn1c2ccccc2c2cnn(CC(=O)Nc3cc(OC)c(OC)c(OC)c3)c(=O)c21,inactive: -20.2%
23,CCC1(C)CC(=O)c2c(ccc3oc(C(=O)Nc4ccc(C(C)=O)cc4)c(C)c23)O1 (configuration not stated),inactive: -9.53%
